For one assay, the target named is T1, human PD-L1 (human, UniProt Q9NZQ7).
T1 construct: whole, on cells; also called PD-L1 on MB231, PC-3 and SW1990 human tumor cells
As to the kind of experiment: flow cytometry on MB231 tumor cells.

For assay [1], the target named is T2, human ICAM-1-Fc (Biolegend) (human, UniProt P05362 28-480).
T2 construct: not shown: Fc part of the bought fusion; not described
The assay is described as follows: ELISA, 1 µg human ICAM-1-Fc coated, CHO supernatant, HRP anti-human IL-15 detection, A405.

For a further assay, the target named is IL-2Rβ/γ on 32Dβ cells. As to the kind of experiment: cell-based or functional assay.
Sequence of IL-2Rβ/γ on 32Dβ cells (P14784 27-551, chain 1 of 2): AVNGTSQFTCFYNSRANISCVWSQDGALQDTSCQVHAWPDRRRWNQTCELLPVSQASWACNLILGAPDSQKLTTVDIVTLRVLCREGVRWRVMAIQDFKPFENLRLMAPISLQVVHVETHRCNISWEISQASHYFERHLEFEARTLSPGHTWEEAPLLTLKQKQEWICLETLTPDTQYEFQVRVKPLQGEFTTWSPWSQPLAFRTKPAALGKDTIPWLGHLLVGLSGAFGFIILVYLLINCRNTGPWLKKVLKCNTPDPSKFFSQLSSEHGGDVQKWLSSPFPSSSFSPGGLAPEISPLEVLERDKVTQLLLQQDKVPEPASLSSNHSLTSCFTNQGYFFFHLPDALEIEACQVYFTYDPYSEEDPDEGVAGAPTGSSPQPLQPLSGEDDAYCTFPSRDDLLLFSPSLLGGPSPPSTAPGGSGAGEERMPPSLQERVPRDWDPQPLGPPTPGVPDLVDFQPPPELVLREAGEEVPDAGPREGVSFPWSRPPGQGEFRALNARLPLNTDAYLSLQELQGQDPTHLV
Sequence of IL-2Rβ/γ on 32Dβ cells (P34902 23-369, chain 2 of 2, further chain): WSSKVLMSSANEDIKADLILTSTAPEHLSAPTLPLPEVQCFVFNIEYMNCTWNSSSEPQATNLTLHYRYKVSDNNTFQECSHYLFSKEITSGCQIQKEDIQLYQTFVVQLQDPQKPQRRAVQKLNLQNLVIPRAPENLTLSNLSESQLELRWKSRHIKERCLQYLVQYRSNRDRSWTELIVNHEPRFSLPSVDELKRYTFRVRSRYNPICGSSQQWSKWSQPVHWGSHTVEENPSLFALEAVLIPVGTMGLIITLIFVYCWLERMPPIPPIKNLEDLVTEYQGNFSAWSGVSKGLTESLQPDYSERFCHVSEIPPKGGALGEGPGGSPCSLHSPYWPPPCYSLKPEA

Sequence of human PD-L1 (Q9NZQ7 19-290): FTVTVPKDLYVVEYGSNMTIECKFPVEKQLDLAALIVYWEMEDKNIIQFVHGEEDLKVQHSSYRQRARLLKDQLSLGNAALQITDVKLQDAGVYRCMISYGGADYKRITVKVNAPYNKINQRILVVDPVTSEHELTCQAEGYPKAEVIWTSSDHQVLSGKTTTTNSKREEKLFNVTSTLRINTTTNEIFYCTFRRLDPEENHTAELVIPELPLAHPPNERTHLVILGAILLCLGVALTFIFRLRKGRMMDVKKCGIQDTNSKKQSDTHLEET
T2 sequence (P05362 28-480 limits assumed): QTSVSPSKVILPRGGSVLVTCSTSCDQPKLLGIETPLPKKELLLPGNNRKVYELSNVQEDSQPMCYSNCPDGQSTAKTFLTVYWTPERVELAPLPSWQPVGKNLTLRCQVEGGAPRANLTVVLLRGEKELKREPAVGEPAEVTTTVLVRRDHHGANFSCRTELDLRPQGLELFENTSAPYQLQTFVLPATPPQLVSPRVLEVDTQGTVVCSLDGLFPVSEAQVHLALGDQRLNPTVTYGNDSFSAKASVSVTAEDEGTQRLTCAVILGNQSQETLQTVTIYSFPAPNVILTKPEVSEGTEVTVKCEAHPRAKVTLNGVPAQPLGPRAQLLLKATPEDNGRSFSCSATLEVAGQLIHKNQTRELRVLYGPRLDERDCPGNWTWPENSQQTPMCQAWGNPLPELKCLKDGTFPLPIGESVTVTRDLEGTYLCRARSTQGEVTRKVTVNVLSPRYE

B1: second anti-human PD-L1 scAb/IL-15N72D:anti-human PD-L1 scAb/huIL-15RαSu/huIgG1 Fc fusion protein complex (avelumab T×M) (Fc fusion)
chain 1: QSALTQPASVSGSPGQSITISCTGTSSDVGGYNYVSWYQQHPGKAPKLMIYDVSNRPSGVSNRFSGSKSGNTASLTISGLQAEDEADYYCSSYTSSSTRVFGTGTKVTVLGGGGSGGGGSGGGGSEVQLLESGGGLVQPGGSLRLSCAASGFTFSSYIMMWVRQAPGKGLEWVSSIYPSGGITFYADTVKGRFTISRDNSKNTLYLQMNSLRAEDTAVYYCARIKLGTVTTVDYWGQGTLVTVSS[about 120 residues left out]
chain 2: QSALTQPASVSGSPGQSITISCTGTSSDVGGYNYVSWYQQHPGKAPKLMIYDVSNRPSGVSNRFSGSKSGNTASLTISGLQAEDEADYYCSSYTSSSTRVFGTGTKVTVLGGGGSGGGGSGGGGSEVQLLESGGGLVQPGGSLRLSCAASGFTFSSYIMMWVRQAPGKGLEWVSSIYPSGGITFYADTVKGRFTISRDNSKNTLYLQMNSLRAEDTAVYYCARIKLGTVTTVDYWGQGTLVTVSSITCPPPMSVEHADIWVKSYSLYSRERYICNSGFKRKAGTSSLTECVLNKATNVAHWTTPSLKCIR[human IgG1 Fc left out]
notes: also called avelumab-based PD-L1 T×M complex
B1: the binding result with human PD-L1 is “binds”.

B2: huIL-15N72D: human LFA-1 I domain(K287C/K294C)/huIL-15RαSu/huIgG1 Fc complex (2*hLFA1/T×M) (Fc fusion)
chain 1: [about 120 residues left out]
chain 2: DLVFLFDGSMSLQPDEFQKILDFMKDVMKKLSNTSYQFAAVQFSTSYKTEFDFSDYVKRKDPDALLKHVKHMLLLTNTFGAINYVATEVFREELGARPDATKVLIIITDGEATDSGNIDAAKDIIRYIIGIGKHFQTKESQETLHKFASKPASEFVCILDTFECLKDLFTELQKKIYVIEGTSKQDLTSFNMELSSSGISADLSRGHAITCPPPMSVEHADIWVKSYSLYSRERYICNSGFKRKAGTSSLTECVLNKATNVAHWTTPSLKCIR[human IgG1 Fc left out]
notes: also called LFA-1 T×M complex
B2: the binding result in assay [1] is reported as “binds”.

B3: 2 headed (h2) hOATscAb/T×M (Fc fusion)
chain 1: [about 120 residues left out]
chain 2: DIQMTQSPASLSASVGDRVTITCLASQTIDTWLAWYLQKPGKSPQLLIYAATNLADGVPSRFSGSGSGTDFSFTISSLQPEDFATYYCQQVYSSPFTFGQGTKLEIKGGGGSGGGGSGGGGSQIQLVQSGGEVKKPGASVRVSCKASGYSFTDYNVYWVRQSPGKGLEWIGYIDPYNGITIYDQNFKGKATLTVDKSTSTAYMELSSLRSEDTAVYFCARDVTTALDFWGQGTTVTVSSITCPPPMSVEHADIWVKSYSLYSRERYICNSGFKRKAGTSSLTECVLNKATNVAHWTTPSLKCIR[human IgG1 Fc left out]
As for B3, the “EC50 of IL-15 bioactivity (32Dβ cell proliferation, PrestoBlue)” value in the assay with IL-2Rβ/γ on 32Dβ cells is 115 pM TxM.

B4: anti-human PD-L1scAb/hOATscAb/T×M (Fc fusion)
chain 1: B3 chain 2
chain 2: NIQMTQSPSSVSASVGDRVTITCRASQDISRWLAWYQQKPGKAPKLLIYAASSLQSGVPSRFSGSGSGTDFALTISSLQPEDFATYYCQQADSRFSITFGQGTRLEIKRGGGGSGGGGSGGGGSEVQLVQSGGGLVQPGGSLRLSCAASGFTFSSYSMNWVRQAPGKGLEWVSYISSSSSTIQYADSVKGRFTISRDNAKNSLYLQMNSLRDEDTAVYYCARGDYYYGMDVWGQGTTVTVSS[about 120 residues left out]
Turning to B4, the “EC50 of IL-15 bioactivity (32Dβ cell proliferation, PrestoBlue)” value in the assay with IL-2Rβ/γ on 32Dβ cells was determined as 202 pM TxM.
